From PubChem BioAssay AID624417 (National Center for Advancing Translational Sciences (NCATS), 2012)
The whole screen tested about 410,000 compounds, of which about 6,400 (1.6%) were called active. The shares of active, inactive and inconclusive entries below differ from those in the screen. The call rests on the fitted dose curve; in most records, active means well fitted inhibition curve with a large enough effect; inconclusive means small, poorly fitted or top-dose-only effect; inactive means no such curve, though single readings can be large or run the other way. Potencies of inconclusive entries are left out as doubtful fits.
Further: nearly all actives have a fitted effect of over 55% in size.
On the % scale 0 is the no-effect control and ±100 the full control effect; potency means the concentration at half of the fitted maximal effect; tags describe the fitted curve by direction and shape.

What follows are molecules tested against Glucagon-like peptide 1 receptor (Homo sapiens) (UniProt P43220) (assay: qHTS of GLP-1 Receptor Inverse Agonists (Inhibition Mode)). Details: HEK293 GLP-1R CRE-luciferase, luminescence, 24 h, GLP-1R form is constitutively active; activity change, negative = inhibition: at 38.3 µM (top of the series) unless noted.
Sequence of UniProt P43220 (P43220 whole entry, looked up): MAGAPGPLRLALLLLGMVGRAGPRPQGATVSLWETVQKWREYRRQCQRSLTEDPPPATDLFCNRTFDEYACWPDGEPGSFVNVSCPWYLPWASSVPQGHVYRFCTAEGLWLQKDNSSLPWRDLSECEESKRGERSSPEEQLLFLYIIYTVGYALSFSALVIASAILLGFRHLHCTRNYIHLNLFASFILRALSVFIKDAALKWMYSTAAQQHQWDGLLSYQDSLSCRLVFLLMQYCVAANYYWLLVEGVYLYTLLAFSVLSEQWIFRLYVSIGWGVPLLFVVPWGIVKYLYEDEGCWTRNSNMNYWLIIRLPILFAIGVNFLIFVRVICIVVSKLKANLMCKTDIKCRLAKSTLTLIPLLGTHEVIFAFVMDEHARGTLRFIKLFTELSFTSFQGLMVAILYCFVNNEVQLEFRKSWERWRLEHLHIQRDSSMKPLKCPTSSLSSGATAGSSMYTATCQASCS
How it was run: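 Inverse agonists were sought by their lowering of basal cAMP reporter luciferase output in HEK293 cells stably carrying constitutively active human GLP-1R, after 24 h compound treatment.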
For `CCc1cccc(NC(=O)c2cnn(-c3ccccc3)c2C)c1`, the Potency was inconclusive [inhibitor, single point].
With `COc1ccccc1C(=O)N1CCN(CCNC(=O)C(=O)Nc2ccc(Br)c(C)c2)CC1` the Potency was inconclusive [inhibitor, single point].
For `CCCN(CC(=O)Nc1cc(Cl)cc(Cl)c1)CC(=O)Nc1ccc(F)c(F)c1F`, the Potency was inconclusive [inhibitor, single point].
For `Cc1ccc(NS(=O)(=O)c2ccccc2[N+](=O)[O-])cc1C`, the Potency was inconclusive [inhibitor, partial curve].
With `Cc1ccc(S(=O)(=O)c2cnc(SC(C)C(=O)Nc3ccccc3)[nH]c2=O)cc1` (centres undefined) the Potency was “inactive”.
`CCC(Cn1nnc2ccccc2c1=O)NC(=O)Nc1ccc(C)cc1` (centres undefined) was tested, and the Potency was “inactive”.
For `Cc1nc2ccccc2nc1N/N=C/c1ccc(O)cc1O`, the Potency was “inactive”.
In the case of `COc1ccc(NS(=O)(=O)c2ccc(C)c(C(=O)N(C)Cc3ccc(C)cc3)c2)cc1`, the Potency was inconclusive [inhibitor, partial curve, poor fit].
`CCOc1ccc2[nH]c3c(NCCN(CC)CC)ncnc3c2c1` was tested, and the activity change, negative = inhibition was inconclusive: -85.1% [inhibitor].
With `N#Cc1c(N2C(=O)Nc3ccccc3N2O)sc2c1CCCC2` the activity change, negative = inhibition was inactive: 1.54% [at 7.66 µM].
`O=C(N/N=C/c1c[nH]c2ccccc12)c1cc(-c2ccccc2)n[nH]1` was tested, and the Potency was inconclusive [inhibitor, partial curve, poor fit].
With `CC(=O)Nc1cccc(NC(=O)CSc2nc(C3CC3)nc3ccccc23)c1` the Potency was inconclusive [inhibitor, single point].
For `Cc1cccc(OCc2n(CC(=O)OC3CC(C)CCC3C(C)C)c3ccccc3[n+]2C)c1` (centres undefined), the Potency was inconclusive [inhibitor, single point].
With `COc1ccccc1C(=O)OCC(=O)Nc1cc(S(=O)(=O)N2CCOCC2)ccc1N1CCCC1` the Potency was “inactive”.
With `O=C(CCc1nnc2n(Cc3ccccc3Cl)c(=O)c3ccccc3n12)Nc1ccc(F)cc1` the Potency was “inactive”.
In the case of `COc1ccc(N2CCN(C(=O)CN3CCN(c4nc(-c5ccc(F)cc5)cs4)CC3)CC2)cc1`, the Potency was inconclusive [inhibitor, single point].
`CCOC(=O)C1CCN(C(=O)CN(C)S(=O)(=O)c2cc(C)ccc2OC)CC1` was tested, and the Potency was inconclusive [inhibitor, single point].
In the case of `O=C1OCCC1Sc1nnc(-c2ccc(Cl)cc2Cl)o1` (centres undefined), the Potency was inconclusive [inhibitor, single point].
In the case of `CCc1c(C)nc(SCC(=O)N2C(C)CCCC2C)[nH]c1=O` (centres undefined), the Potency was inconclusive [inhibitor, partial curve].
`Cc1ccc(NC(=O)COC(=O)C2CC3C=CC2C3)cc1S(=O)(=O)N1CCCCC1` (centres undefined) was tested, and the Potency was inconclusive [inhibitor, partial curve, poor fit].
`CCCCN(Cc1ccccc1)S(=O)(=O)c1cc(Br)cc2c1N(C(=O)C1CC1)CC2` was tested, and the Potency was inconclusive [inhibitor, single point].
With `CC(NC(=S)NNS(=O)(=O)c1ccc(C(C)(C)C)cc1)c1ccccc1` (centres undefined) the Potency was inconclusive [inhibitor, single point].
In the case of `Cc1cccn2c(=O)c(C=NCc3ccccc3)c(NCCO)nc12`, the Potency was “inactive”.
In the case of `COc1cc(NC(=O)c2ccc(-c3nc(COc4ccccc4)c(C)o3)cc2)cc(OC)c1`, the Potency was inconclusive [inhibitor, partial curve].
With `Cc1ccc(S(=O)(=O)/N=C(/Nc2cccc3ccccc23)c2ccc(F)cc2)cc1` the Potency was inconclusive [inhibitor, partial curve, poor fit].
For `CCOC(=O)[C@@H]1[C@H]2COc3ccc(Br)cc3[C@@H]2N2C(=O)N(c3cccc(Cl)c3)C(=O)[C@@]12C`, the Potency was “inactive”.
`COc1cc(C(=O)Nc2ccc3c(c2)N(C(=O)CN2CCN(C)CC2)c2ccccc2CC3)cc(OC)c1OC` was tested, and the Potency was inconclusive [inhibitor, single point].
`Cc1nc2ccccc2c(=O)n1CCc1ccccc1` was tested, and the Potency was “inactive”.
`Cc1ccccc1-c1nc2cc(NC(=O)c3cccc(OCCC(C)C)c3)ccc2o1` was tested, and the Potency was inconclusive [inhibitor, partial curve, poor fit].
For `O=C1C=CC2(O[C@H](c3ccccc3)[C@@H](c3ccccc3)O2)[C@H](Sc2ccccc2O)C1`, the Potency was inconclusive [inhibitor, full curve, poor fit].
With `CC(NC(=O)c1ccco1)C(=O)N1CC=C(c2ccccc2)CC1` (centres undefined) the Potency was inconclusive [inhibitor, single point].
With `COc1ccc(N2CCN(C(=O)c3sc4ncn(CC(=O)N5CCCCC5C)c(=O)c4c3C)CC2)cc1` (centres undefined) the Potency was inconclusive [inhibitor, partial curve, poor fit].
With `COC(=O)[C@]1(C)CCC[C@@]2(C)C3CC[C@@]4(C)C[C@]3(CCC21)CC(=O)N4Cc1ccc(OC)cc1` (some centres undefined) the Potency was inconclusive [inhibitor, single point].
In the case of `Cc1c(CN2CCN(CC(C)(C)C)C(CCO)C2)[nH]c2ccccc12` (centres undefined), the Potency was inconclusive [inhibitor, partial curve, poor fit].
For `CC(C)(C)Nc1nc(-c2ccc3c(c2)CCN3C(=O)C2CC2)cs1`, the Potency was inconclusive [inhibitor, single point].
`COc1cc(C2=NOC(C(=O)NCc3cccs3)C2)cc(OC)c1OC` (centres undefined) was tested, and the Potency was inconclusive [inhibitor, full curve, poor fit].
In the case of `Cc1ccc(C(=O)CCNc2ccc(F)c(Cl)c2)o1`, the Potency was inconclusive [inhibitor, single point].
For `Cc1ccc(N2C(=O)CC(Sc3nc(C)cc(C)n3)C2=O)cc1` (centres undefined), the Potency was inconclusive [inhibitor, full curve, poor fit].
`CC1CC1C(=O)N(C)CC(=O)Nc1ccc(Cl)c(C(F)(F)F)c1` (centres undefined) was tested, and the Potency was inconclusive [inhibitor, partial curve, poor fit].
